First the molecules themselves.
B1: DOMAIN_30329 (protein, listed as Macaca mulatta)
chain: LTFEDVAVYFSEEEWQLLDPPEKTLYNDVMQDIYETVISLGLKLKNDTGNDHPISVSTSEIQTSGCKVSKKTRMKIAQKTMGRE
B2: DOMAIN_32286 (protein, listed as Homo sapiens)
chain: DTVVFEDVVVDFTLEEWALLNPAQRKLYRDVMLETFKHLASVDNEAQLKASGSISQQDTSGEKLSLKQKIEKFTRKNIWA
B3: DOMAIN_32127 (protein, listed as Homo sapiens)
chain: AFEDVAVYFSQEEWGLLDTAQRALYRRVMLDNFALVASLGLSTSRPRVVIQLERGEEPWVPSGTDTTLSRTTYRRRNPGS
B4: DOMAIN_32146 (protein, listed as Homo sapiens)
chain: ALRSVMFSDVSIDFSPEEWEYLDLEQKDLYRDVMLENYSNLVSLGCFISKPDVISSLEQGKEPWKVVRKGRRQYPDLETK
B5: DOMAIN_32351 (protein, listed as Homo sapiens)
chain: RVLTFRDVAVEFSPEEWECLDSAQQRLYRDVMLENYGNLFSLGLAIFKPDLITYLEQRKEPWNARRQKTVAKHPAGSLHF
B6: DOMAIN_31798 (protein, listed as Notechis scutatus)
chain: VSFEEVAVHFSEEEWSQLDPAQKALHGEVMLENSRNLASLGYNEHGNKNCKEQCQPVDPNEQNRNFADQMQTKIDETNQSQSEVEKTFHSTHH
B7: DOMAIN_31638 (protein, listed as Balaenoptera acutorostrata)
chain: VVFEDVAVYFSQEEWGLLDEAQRHLYHAVMTENFALVTSLGCWHGAQDEEAPSEQSISVGMSEVGTPKPDPSTKKGQPYEMCEPLSKDLLHL
B8: DOMAIN_32386 (protein, listed as Homo sapiens)
chain: NMEGLVMFQDLSIDFSQEEWECLDAAQKDLYRDVMMENYSSLVSLGLSIPKPDVISLLEQGKEPWMVSRDVLGGWCRDSE
B9: DOMAIN_32215 (protein, listed as Homo sapiens)
chain: SQVTFSDVAIDFSHEEWACLDSAQRDLYKDVMVQNYENLVSVGLSVTKPYVIMLLEDGKEPWMMEKKLSKAYPFPLSHSV
B10: DOMAIN_32145 (protein, listed as Homo sapiens)
chain: RESLEDEVTPGLPTAESQELLTFKDISIDFTQEEWGQLAPAHQNLYREVMLENYSNLVSVGYQLSKPSVISQLEKGEEPW
B11: DOMAIN_32334 (protein, listed as Homo sapiens)
chain: EPLKFRDVAIEFSLEEWQCLDTIQQNLYRNVMLENYRNLVFLGIVVSKPDLITCLEQEKEPWTRKRHRMVAEPPVICSHF
B12: DOMAIN_32159 (protein, listed as Homo sapiens)
chain: DSVAFEDVAVNFTQEEWALLSPSQKNLYRDVTLETFRNLASVGIQWKDQDIENLYQNLGIKLRSLVERLCGRKEGNEHRE
B13: DOMAIN_31383 (protein, listed as Propithecus coquereli)
chain: VTFEDVAVNFTPQEWALLDPSQKNLYRDVMQETLRNLASVGKKWKDQNMEDECKTPRRNLRSVVGERLFTSKEGSQCGETLNLDSHHMLKK
B14: DOMAIN_31235 (protein)
chain: VTFEDVAVNFSLEEWALLDLSQKKLYRDVMQETFRNLASVGEKWDNHNIEDWNKTQGRKLRSHMVEKLSESKEGGQHGETASQIPNL
modifications: Vicugna pacos
B15: DOMAIN_32321 (protein, listed as Homo sapiens)
chain: TQPDEDLHLQAEETQLVKESVTFKDVAIDFTLEEWRLMDPTQRNLHKDVMLENYRNLVSLGLAVSKPDMISHLENGKGPW
B16: DOMAIN_32279 (protein, listed as Homo sapiens)
chain: EETQGELTSSCGSKTMANVSLAFRDVSIDLSQEEWECLDAVQRDLYKDVMLENYSNLVSLGYTIPKPDVITLLEQEKEPW
B17: DOMAIN_32312 (protein, listed as Homo sapiens)
chain: GSLEEGRRATGLPAAQVQEPVTFKDVAVDFTQEEWGQLDLVQRTLYRDVMLETYGHLLSVGNQIAKPEVISLLEQGEEPW
B18: DOMAIN_1381 (protein, listed as Gorilla sp.)
chain: MAAMPLKARYQEMVTFEDVAVHFTKTEWTGLSPAQRALYRSVMLENFGNLTALGYPVPKPALISLLEGGDMAWGLEAQDDP
B19: DOMAIN_1875 (protein, listed as Gorilla sp.)
chain: MAALFLSAPHQAKVTFEDVAVYLSREEWGRLGPAQRGLYRDVMLETYGNLVSLGVGPAGPKPGVISQLERGDEPWVLDVQG
B20: DOMAIN_1946 (protein, listed as Pongo sp.)
chain: GESLESRVTLGSLTAESQELLTFKDVSVDFTQEEWGQLAPAHRNLYREVMLENYGNLVSVGYQLSKPGVISQLEKGEEPWL
B21: DOMAIN_1818 (protein, listed as Gorilla sp.)
chain: MAAGQREARPQVSLTFEDVAVLFTRDEWRKLAPSQRNLYRDVMLENYRNLLSLGLPFTKPQVISLLQQGEDPWEVEKEGSG
B22: DOMAIN_1952 (protein, listed as Pongo sp.)
chain: MANATGSGVEQKFQGSVSFKDVTVGFTQEEWQHLDPSQRALYRDVMLENYSNLVSVGYCVHKPEVIFRLEQGEEPWKLEEE
B23: DOMAIN_1893 (protein, listed as Gorilla sp.)
chain: MAMSQESLTFKDVFVDFTLEEWQQLDSAQKNLYRDVMLENYSHLVSVGYLVEKPDVIFRLGPGEESWMADGGTPVRTCAGE
B24: DOMAIN_1578 (protein, listed as Gorilla sp.)
chain: MVHGSVTFRDVAIDFSQEEWECLQPDQRTLYRDVMLENYSHLISLAGSSISKPGVITLLEQEKEPWMVVRKETSRWYPDLE
B25: DOMAIN_1870 (protein, listed as Gorilla sp.)
chain: MDMAQEPVTFRDVAIYFSREEWACLEPSQRALYRDVMLDNFSSVAALGFCSPRPDLVSRLEQWEEPWVEDWERPELQAVQR
B26: DOMAIN_1382 (protein, listed as Gorilla sp.)
chain: MPLKARYQEMVTFEDVAVHFTKTEWTGLSPAQRALYRSVMLENFGNLTALGYPVPKPALISLLEGGDMAWGLEAQDDPPAE
B27: DOMAIN_1790 (protein, listed as Gorilla sp.)
chain: MLQTVWFQEPVTFEDVAVYFTQNEWASLHPTQRALYREVMLENYANVTSLSAFPFPKPDLIFQLEQGEAAWGPDPWTLAGG
B28: DOMAIN_1561 (protein, listed as Gorilla sp.)
chain: MNMEGLVMFQDLSIDFSQEEWECLDAAQKDLYRDVMMENYSSLVSLGLSIPKPDVISLLEQGKEPWMVSRDVLGGWCRGLE
B29: DOMAIN_1457 (protein, listed as Gorilla sp.)
chain: MGPLQFKDVAIEFSLEEWHCLDTAQRNLYRDVMLENYRNLVFLGIVVSKPDLIARLEQGKKPLTMKRHEMVANPSGPGVVV
B30: DOMAIN_1378 (protein, listed as Gorilla sp.)
chain: MHLTAWPQKSVTFEDVAVYFTQAEWDGLSPAQRALYRDVMLENYGNVASLGFPLLKPAVISQLEGGGELGGPSPLAAGTGL
B31: DOMAIN_1539 (protein, listed as Gorilla sp.)
chain: MIEYQIPVSFKDVVVGFTQEEWHRLSPAQRALYRDVMLETYSNLVSVGYEGTKPDVILRLEQEEAPWIGEAACPGCHCWGK
B32: DOMAIN_1822 (protein, listed as Gorilla sp.)
chain: MAVDLLSAQERVTFRDVAVFFSQDEWLHLDSAQRALYREVMLENYSILVSLGIPFSMPKLIHQLQQGEDPCMVEREVPSDT
B33: DOMAIN_1242 (protein)
chain: ADITLMSQAQDSRSILFQESVTFEDVAVNFTNREWQCLTYAQRHLYKDVMLENYGNMVSLGFPFPKPPLISHLEREVDPCV
modifications: Pan troglodytes
B34: DOMAIN_1247 (protein)
chain: MRVLTFRDVAVEFSPEEWECLDSAQQHLYRDVMLENYGNLFSLGLAIFKPDLITYLEQRKEPWNARRQKTVAKHPAGSLHF
modifications: Pan troglodytes
B35: DOMAIN_1565 (protein, listed as Gorilla sp.)
chain: LAPEDHGSSYEGSVSFRDVAIDFSREEWRHLDPSQRNLYRDVMLETYSHLLSVGYQVPEAEVVMLEQGKEPWALQGERPRQ
B36: DOMAIN_1523 (protein, listed as Gorilla sp.)
chain: EELVGQNHGMEGEACTGGDVTFSDVAIDFSHEEWACLDTAQRDLYKDVMVQNYENLVSVGLSVTKPYVIMLLEDGKEPWMM

One test has as its system HBEGF locus. The class given is cell-based, human. To be noted: fold change in abundance of each repressor domain in the dXR library before vs after diphtheria toxin selection; dXR repression of the HBEGF gene; domains meeting p-value <0.01 and log2(fold change) >2.
For the molecule B1, the “Log2 (fold change)” value is given as 2.1216.

As for B2, the “Log2 (fold change)” value was determined as 2.8921.

On to B3, for which the “Log2 (fold change)” value was 3.7547.

As for B4, the “Log2 (fold change)” value is 2.7628.

Consider B5, for which the “Log2 (fold change)” value came to 2.0727.

On to B6, for which the “Log2 (fold change)” value worked out at 4.8007.

On to B7, for which the “Log2 (fold change)” value came out at 2.0254.

On to B8, for which the “Log2 (fold change)” value turned out to be 3.5521.

For the molecule B9, the “Log2 (fold change)” value stood at 3.2653.

As for B10, the “Log2 (fold change)” value was determined as 3.1866.

B11: the “Log2 (fold change)” value came to 2.8117.

For the molecule B12, the “Log2 (fold change)” value is 2.7874.

As for B13, the “Log2 (fold change)” value turned out to be 2.1919.

Regarding B14, the “Log2 (fold change)” value came out at 2.2828.

Turning to B15, the “Log2 (fold change)” value was 3.0441.

Regarding B16, the “Log2 (fold change)” value was 2.4917.

On to B17, for which the “Log2 (fold change)” value was found to be 2.9151.

The same test, now with this note: high-throughput screen of dXR repression of the HBEGF gene; change in abundance of each domain in the library before and after diphtheria toxin selection.
For the molecule B18, the “Log2 (fold change)” value is given as 4.1424.

As for B19, the “Log2 (fold change)” value was 2.5576.

For B20, the “Log2 (fold change)” value is recorded as 3.1449.

As for B21, the “Log2 (fold change)” value is recorded as 3.2866.

Take B22: the “Log2 (fold change)” value came out at 3.0762.

Turning to B23, the “Log2 (fold change)” value is listed as 2.3898.

As to B24, the “Log2 (fold change)” value was determined as 3.4875.

Consider B25, for which the “Log2 (fold change)” value is recorded as 2.215.

As for B26, the “Log2 (fold change)” value stood at 3.0579.

As for B27, the “Log2 (fold change)” value is reported as 3.0669.

In the case of B28, the “Log2 (fold change)” value is on record as 2.8783.

Take B29: the “Log2 (fold change)” value worked out at 2.6896.

B30: the “Log2 (fold change)” value is on record as 3.2279.

With B31, the “Log2 (fold change)” value turned out to be 2.9337.

Turning to B32, the “Log2 (fold change)” value was found to be 2.4697.

As for B33, the “Log2 (fold change)” value worked out at 2.7144.

For B34, the “Log2 (fold change)” value was found to be 2.9622.

B35: the “Log2 (fold change)” value turned out to be 2.771.

As for B36, the “Log2 (fold change)” value stood at 2.8607.

Source of the values: patent US12551573B2, “Compositions and methods for the targeting of PCSK9” (Scribe Therapeutics Inc., priority 2022, dated 2026).
